# From paper PMC4336329 (PLoS ONE, 2015)
# Among all 310,000 compounds or so, about 2,200 (0.71%) showed an effect of 50% or more. The effect is printed as a negative number. Some of the results follow.
# Target: human ether-à-go-go-related gene (hERG) potassium channel (human, UniProt Q12809)
# Experiment: primary screen, population patch clamp on CHO cells stably expressing hERG
# Sequence of human ether-à-go-go-related gene (hERG) potassium channel (Q12809 whole entry, looked up): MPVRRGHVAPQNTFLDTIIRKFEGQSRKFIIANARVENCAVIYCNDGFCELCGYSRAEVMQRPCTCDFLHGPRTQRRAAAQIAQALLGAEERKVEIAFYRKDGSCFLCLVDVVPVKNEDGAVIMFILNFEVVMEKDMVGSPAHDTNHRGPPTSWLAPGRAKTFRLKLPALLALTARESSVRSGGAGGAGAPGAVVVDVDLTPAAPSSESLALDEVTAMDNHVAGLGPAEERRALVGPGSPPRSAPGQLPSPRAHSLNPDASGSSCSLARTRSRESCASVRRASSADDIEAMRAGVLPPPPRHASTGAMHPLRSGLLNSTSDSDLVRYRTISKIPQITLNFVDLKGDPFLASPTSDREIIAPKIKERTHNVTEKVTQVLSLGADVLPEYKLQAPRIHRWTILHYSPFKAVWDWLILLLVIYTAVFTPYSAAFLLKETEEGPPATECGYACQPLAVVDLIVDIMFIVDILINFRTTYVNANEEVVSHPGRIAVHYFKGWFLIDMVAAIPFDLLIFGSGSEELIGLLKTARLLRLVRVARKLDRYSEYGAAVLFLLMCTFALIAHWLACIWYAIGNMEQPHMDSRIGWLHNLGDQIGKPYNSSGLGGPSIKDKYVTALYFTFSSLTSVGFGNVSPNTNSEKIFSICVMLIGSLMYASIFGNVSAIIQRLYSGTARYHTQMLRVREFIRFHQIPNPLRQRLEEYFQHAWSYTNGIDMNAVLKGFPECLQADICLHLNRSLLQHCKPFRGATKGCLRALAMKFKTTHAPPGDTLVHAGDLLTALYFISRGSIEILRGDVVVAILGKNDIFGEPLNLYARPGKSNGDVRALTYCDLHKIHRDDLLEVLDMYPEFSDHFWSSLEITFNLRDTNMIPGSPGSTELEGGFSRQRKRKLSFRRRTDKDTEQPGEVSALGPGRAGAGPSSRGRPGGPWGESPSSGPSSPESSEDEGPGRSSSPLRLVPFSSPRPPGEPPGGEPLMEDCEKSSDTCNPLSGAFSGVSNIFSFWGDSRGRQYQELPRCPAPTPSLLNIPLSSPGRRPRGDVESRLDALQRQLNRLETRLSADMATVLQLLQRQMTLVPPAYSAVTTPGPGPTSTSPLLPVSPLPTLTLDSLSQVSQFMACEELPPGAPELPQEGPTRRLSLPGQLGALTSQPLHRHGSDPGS
row,Structure (SMILES),"hERG current change (%, negative = inhibition) at 1uM [%]"
1,Cl.N=c1n(CCN2CCCCC2)c2ccccc2n1CC(O)c1ccco1 (stereo not shown),-4.15
2,O=C(O)CSc1c2c(nc3cc(C(=O)NCCN4CCOCC4)ccc13)CCC2,-1.36
3,CCOP(=O)(OCC)c1cc(C)c(O)c(C(C)(C)C)c1,8.82
4,Cn1cc(C(=O)OCC(=O)N2CCCC2)c2ccccc21,6.85
5,CCOC(=O)CC(NC(=O)c1cc2cccc(OC)c2oc1=O)c1cccc([N+](=O)[O-])c1 (stereo not shown),5.93
6,COc1ccc(-c2cc(=[NH+]c3cccc(C(=O)O)c3)c3cc(C)ccc3o2)cc1.[O-][Cl+3]([O-])([O-])[O-],6.72
7,COCc1cc(C)nc(SCC(=O)Nc2cccc(C)c2)c1C#N,16.6
8,CC(=O)c1ccc(OCC(=O)N(C)CC(=O)Nc2ccc(N3CCOCC3)cc2)cc1,5.34
9,CCN(CC(=O)Nc1cccc(S(=O)(=O)N2CCOCC2)c1)Cc1ccccc1,13.4
10,COc1ccc(C(=O)Nc2ccc(Oc3nc(C)nc4sc(-c5ccccc5)cc34)cc2)cc1OC,12.5
11,Cc1cccc(C)c1NC(=O)CNCC(=O)N(C)C,-2.22
12,CCc1cc2c(COC(=O)c3c(C)noc3C)cc(=O)oc2cc1O,17
13,O=C1CCc2cc(S(=O)(=O)Nc3cccc(F)c3)cc3c2N1CC3,-5.06
14,CC(C)Oc1cccc(-c2cc(C(=O)N3CCN(c4ncccn4)CC3)c3ccccc3n2)c1,17.8
15,O=C(CCc1ccccc1)Nc1ccc(S(=O)(=O)N2CCCC2)cc1,3.63
16,COc1ccccc1C1=NOC(Cn2c(=O)c3c(ncn3C)n(C)c2=O)C1 (stereo not shown),5.97
17,N#CCCN(CCC#N)C(=O)C1c2ccccc2Oc2ccccc21,13.7
18,COc1ccc(-c2cn3cccnc3n2)cc1NC(=O)C(C)Oc1ccccc1 (stereo not shown),13.6
19,CCCOc1ccc(C2C(=O)N(C3CCCCCC3)CC(=O)N2Cc2ccco2)cc1OC (stereo not shown),-8.54
20,COC(=O)CCS(=O)(=O)c1ccc(NC(C)=O)cc1,16.1
21,Cn1cc(CN2CCCC(C(=O)Nc3ccc(-c4cccc(F)c4)cc3)C2)cn1 (stereo not shown),3.47
22,CCOC(=O)CSc1nnc(NC(=O)c2cccc([N+](=O)[O-])c2C)s1,6.75
23,CCCCCCCCNC(CO)(CO)CO,11.5

row,Structure (SMILES),"hERG current change (%, negative = inhibition) at 1uM [%]"
1,COc1ccc(C(=O)n2nnc3ccccc32)cc1Br,12.5
2,Cc1ccc(C)c(OCCC(=O)Nc2cccc(S(=O)(=O)N3CCCC3)c2)c1,13
3,CCOc1ccc(Cl)cc1CNCCCSc1ncccn1,2.25
4,CCOc1ccccc1N1CC(C(=O)Nc2cc(Cl)ccc2C)CC1=O (stereo not shown),5.84
5,CC1(C)CC(=O)N(Cc2ccccc2)C(=O)C1,8.7
6,CCCS(=O)(=O)N1CCCC(C(=O)NCCCN2CCCC2=O)C1 (stereo not shown),14
7,COc1cccc(OCC(=O)Nc2c3c(nn2-c2ccccc2)CS(=O)(=O)C3)c1,-4.86
8,Cc1ccc(Cl)cc1NS(=O)(=O)c1ccc2c(c1)NC(=O)C(C)C(=O)N2 (stereo not shown),14
9,CCCCC(Nc1ncnc2ccccc12)C(=O)O (stereo not shown),5.89
10,Cc1onc(-c2ccccc2)c1C(=O)/C=C/N(C)C,12
11,COc1ccc(Cl)cc1C(=O)Nc1nc2ccc(S(C)(=O)=O)cc2s1,12.3
12,COc1ccc(/C=C(\C#N)C(=O)Nc2ccc3[nH]c(=O)[nH]c3c2)cc1,8.33
13,CC1CCCN(C(C(=O)NC2CCCCC2)c2cc3c(cc2[N+](=O)[O-])OCO3)C1 (stereo not shown),7.89
14,Cc1nn(CCc2n[nH]c(=S)n2-c2cccc(Cl)c2)c(C)c1[N+](=O)[O-],8.14
15,O=C(O)c1cc(S(=O)(=O)N2CCCC2)ccc1Br,4.87
16,CN1CCc2c(sc3nc(NCCO)n(-c4cccc(Cl)c4)c(=O)c23)C1,3.45
17,CN(CC(=O)Nc1ccc(F)c(F)c1F)C(=O)C1=NN(c2ccccc2)C(=O)CC1,3.64
18,O=C(O)c1cccc(NC(=O)c2cccc(S(=O)(=O)N3CCc4ccccc43)c2)c1,11
19,CSc1nnc(NC(=O)c2nc(S(=O)(=O)Cc3ccccc3)ncc2Cl)s1,10.8
20,CCOC(=O)c1ccccc1C(=O)OCC,6.75
21,C=CCNC(=O)c1ccccc1NC(=O)c1ccccc1C,10.2
22,Cc1ccc(-n2ncc3c(NCc4ccccn4)ncnc32)c(C)c1,3.64
23,c1ccc(-c2noc(C34CC5CC(CC(C5)C3)C4)n2)cc1,13.5

row,Structure (SMILES),"hERG current change (%, negative = inhibition) at 1uM [%]"
1,COCCNC(=O)CN(C(=O)c1ccc(N2CCCC2)nc1)c1ccc(Cl)cc1,8.93
2,O=C(O)c1nn2c(c1Br)NC(c1ccccc1)CC2C(F)(F)F (stereo not shown),12.3
3,CCC1C2CC3C4N(C)c5ccccc5C45CC(C2C5O)N3[C@@H]1O (stereo partly shown),5.91
4,Cc1ccc(C2=NCCn3nc4cc([N+](=O)[O-])ccc4c32)cc1,16.4
5,Cc1cc(-c2nnc(CSc3nnc(NC(=O)c4ccc(C(C)(C)C)cc4)s3)o2)ccc1[N+](=O)[O-],6.27
6,Cc1cc2c(cc1S(=O)(=O)NC1CCCCC1C)OCC(=O)N2 (stereo not shown),5.01
7,Cc1ccc(CNC(=O)C2CCN(S(=O)(=O)c3cccnc3)CC2)cc1,18.4
8,Cc1cccc(-c2noc(CCC(=O)Nc3ccccc3)n2)c1,3.2
9,Cc1ccc(-n2c(C)cc(C=C(C#N)C#N)c2C)cc1,16.2
10,O=C(Nc1ccc(NC(=O)C2CCCCC2)nc1)c1ccco1,-0.667
11,O=C(NCc1cn2ccsc2n1)Nc1ccc(Cl)cc1,9.77
12,Cc1cc([N+](=O)[O-])nn1CC(=O)NCc1ccccc1,16.9
13,O=C(CCNS(=O)(=O)c1ccccc1C(F)(F)F)NCc1ccc2c(c1)OCO2,5.56
14,Oc1ccccc1C=Nc1cccc2ccccc12,10.4
15,C#CCn1c(=NC(=O)CN2C(=O)CCC2=O)sc2cccc(OC)c21,8.09
16,N#Cc1ccsc1NC(=O)CN1C(=O)NC2(CCCCC2)C1=O,11.1
17,CCCCC1(C(=O)OC)NC(c2ccc(O)cc2)C2C(=O)N(c3ccccc3)C(=O)C21 (stereo not shown),10.3
18,O=C(C[n+]1ccsc1)c1ccccc1.[Br-],8.2
19,Cc1c(NC(=O)CN2CCN(C(c3ccccc3)c3ccccc3)CC2)c(=O)n(-c2ccccc2)n1C,-3.69
20,CCOc1ccccc1N1CCN(C(=O)CCCc2nc3ccccc3s2)CC1,0.595
21,COc1cccc(C(=O)Nc2nnc(S(=O)(=O)N3CCCCC3)s2)c1,18.6
22,CCC(=O)Nc1c(C)cc(C)cc1Cl,10.5
23,Clc1ccc(Cc2ccc(Cl)nn2)c(Cl)c1,-2.56

row,Structure (SMILES),"hERG current change (%, negative = inhibition) at 1uM [%]"
1,Cn1c(=O)[nH]c(=O)c2c1nc(Br)n2C/C=N/NC(N)=S,6.1
2,NC(=O)N/N=C/c1cn(-c2ccccc2)nc1-c1cccnc1,7.48
3,Cc1ccc(OCCN2C(=O)c3ccccc3C2=O)cc1,-8.33
4,O=C(NCCc1csc(-c2ccc(C(F)(F)F)cc2)n1)c1cccs1,9.66
5,N#C/C(C(N)=O)=C1/CCc2ccccc2N1,4.06
6,CC1(C)CC(=O)C2=C(C1)OC(N)=C(C#N)C2c1ccc[nH]1 (stereo not shown),12.1
7,CCc1ccc(Nc2ncccc2C#N)cc1,5.27
8,Cn1c(=O)c2c(nc(CN3CCN(c4ccccc4)CC3)n2CCCc2ccccc2)n(C)c1=O,0.856
9,CCOC(=O)c1c(NC(=O)C2CC(Cl)=CCC2C(=O)O)sc2c1CC(C)(C)OC2 (stereo not shown),18.8
10,Oc1c(C(Nc2ccccn2)c2ccccn2)ccc2cccnc12 (stereo not shown),7.89
11,O=C(OCC(=O)N(CCc1ccccc1)Cc1ccccc1)c1ccccc1NCCO,10.6
12,O=C(Cc1cccs1)Nc1ccc(-c2nc3ccccc3[nH]2)cc1,9.62
13,NS(=O)(=O)OCC1CCCCC1,13.4
14,O=C(CCc1nc2cccnc2n1Cc1ccccc1)NCCc1ccc(Cl)cc1,-65.2
15,O=C(NCC(O)c1ccccc1)c1ccccc1 (stereo not shown),15.2
16,CC(C)NC(=O)COc1ccccc1C#N,12.1
17,O=C(Nc1ccc2sccc2c1)c1ccc(Cl)s1,6.75
18,O=C(CN1CCN(c2ccc(Cl)cc2)CC1)c1ccc2c(c1)OCO2,1.86
19,c1ccc(N2CCN(Cc3ccsc3)CC2)nc1,-0.566
20,O=C(CCc1nnc2ccc(NCc3ccco3)nn12)Nc1cc(F)ccc1F,8.22
21,CC(SC#N)C(=O)C12CC3CC(CC(C3)C1)C2 (stereo not shown),2.38
22,O=C(Nc1ccc(OC(=O)c2cccnc2)cc1)c1cccnc1,7.98
